Assay results published in publication PMC6919601, “Identification of Plasmodium dipeptidyl aminopeptidase allosteric inhibitors by high throughput screening” (PLoS ONE, 2019).
Values joined by “and” are separate entries in the source; they are usually repeats but may differ in a detail not shown here. Identical values can stand only once. About 230 (0.21%) of roughly 110,000 compounds showed an effect of 50% or more. Some of the results follow.

target: DPAP1 (Plasmodium falciparum, UniProt Q8IIJ9); assay: primary screen, percent inhibition; read by cleavage of a fluorogenic dipeptide substrate; higher = more effect of the substance; design: species or system P. falciparum D10 trophozoite lysates; single well
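Note: 30 min substrate incubation versus DMSO and 10 µM JCP410 controls.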

Chain of DPAP1 (Q8IIJ9 whole entry, looked up): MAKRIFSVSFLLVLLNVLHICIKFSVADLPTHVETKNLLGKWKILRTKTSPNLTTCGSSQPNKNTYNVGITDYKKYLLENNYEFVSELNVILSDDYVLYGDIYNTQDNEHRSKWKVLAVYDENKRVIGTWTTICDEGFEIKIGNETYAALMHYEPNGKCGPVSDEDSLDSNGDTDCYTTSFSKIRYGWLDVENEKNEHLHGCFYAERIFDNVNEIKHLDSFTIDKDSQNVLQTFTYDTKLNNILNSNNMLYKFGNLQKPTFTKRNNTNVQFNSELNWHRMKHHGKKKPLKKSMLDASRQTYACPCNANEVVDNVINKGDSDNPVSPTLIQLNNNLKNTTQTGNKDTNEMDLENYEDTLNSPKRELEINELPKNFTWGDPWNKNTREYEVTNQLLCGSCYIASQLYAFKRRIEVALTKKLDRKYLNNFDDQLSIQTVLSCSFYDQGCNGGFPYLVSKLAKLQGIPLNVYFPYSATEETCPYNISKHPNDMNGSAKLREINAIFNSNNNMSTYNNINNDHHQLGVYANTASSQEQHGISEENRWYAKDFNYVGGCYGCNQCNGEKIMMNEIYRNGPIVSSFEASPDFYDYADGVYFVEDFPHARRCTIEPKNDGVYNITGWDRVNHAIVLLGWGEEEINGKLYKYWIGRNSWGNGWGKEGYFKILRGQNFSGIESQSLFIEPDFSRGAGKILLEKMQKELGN

Row | Structure (SMILES) | % Inhibition @ 10 uM
1 | COc1cc2c(cc1OC)C(c1cccc(OC)c1O)NCC2 (stereo not shown) | -11.6%
2 | CC(C)c1ccc(NC(=O)CN(c2ccccc2F)S(C)(=O)=O)cc1 | -5.06%
3 | CCN(CC)c1ccc(NC(=O)COc2ccccc2C)cc1 | -0.999%
4 | Cc1ccc(C2CC(C(F)(F)F)n3nc(C(=O)N4CCCC4)c(Cl)c3N2)cc1 (stereo not shown) | -2.8%
5 | CCOC(=O)c1nnn(-c2nonc2N)c1CN(C)C1CCCCC1 | 3.25%
6 | CN(CC(COc1ccccc1)OC(=O)c1ccc(Cl)cc1)C1=NS(=O)(=O)c2ccccc21 (stereo not shown) | -0.597%
7 | O=C(Cn1nnc(-c2ccc(F)cc2)n1)N1CCCCC1 | -5.28%
8 | O=c1c2c(n3cnnc3n1-c1ccccc1)-c1ccccc1CC21CCCCC1 | -1.81%
9 | CN1C(=O)C(=Cc2cn(Cc3ccccc3C#N)c3ccccc23)C(=O)N(C)C1=O | -2.87%
10 | Cc1sc2nc(Cc3ccccc3)nc(N3CCCCCC3)c2c1C | 0.238%
11 | COc1ccc(C2(O)CSC3=C(C#N)C(c4ccccc4F)CC(=O)N32)cc1 (stereo not shown) | 3.24%
12 | COc1ccc(-c2cc(C)no2)cc1S(=O)(=O)N1CCc2ccccc2C1 | 1.84%
13 | CCCCSc1nc(O)c(Cc2ccccc2)c(O)n1 | -9.14%
14 | Cc1ccc(S(=O)(=O)N2CCN(C(=O)CSc3nc4ccccc4[nH]3)C2)cc1 | -1.69%
15 | CCc1ccc(NC2=C(Cl)C(=O)N(c3ccccc3)C2=O)cc1 | 5.58%
16 | Cc1nc(-c2ccccc2)c2cc(Cl)sc2n1 | 6.24%
17 | CN(CCCNC(=O)c1cc2cc3ccc(Cl)cc3nc2o1)Cc1ccccc1 | -3.35%
18 | Cc1nn(CC(=O)NC(C)C)c(=O)c2cc3ccccc3n12 | 3.24%
19 | OCCN1CCN(Cc2ccsc2)CC1 | 1.9%
20 | COc1cccc(OC)c1C(=O)Nc1nc(-c2ccccc2)c(C)s1 | 8.36%
21 | CCc1ccc(OCC(=O)NCc2cccnc2)c(Br)c1 | -1.06%
22 | CN(C)c1cnn(-c2ccccc2)c(=O)c1N | 0.215% and -3.8%
23 | CC(C)(C)NS(=O)(=O)c1ccc(NC(=O)NC2CCCCC2)cc1 | -1.27%
24 | N#CC1=C(N)OC2=C(C(=O)CC(c3ccccc3)C2)C1c1ccsc1 (stereo not shown) | 10.8%
25 | CC(c1ccccc1)n1c(CNC(=O)c2ccccc2)nc2ccccc21 (stereo not shown) | -1.15%
26 | Cc1oc(-c2cccs2)nc1CS(=O)CC(=O)NCCC(C)C (stereo not shown) | -0.138%

Row | Structure (SMILES) | % Inhibition @ 10 uM
27 | Clc1ccc(CNc2c3c(nc4nncn24)CCC3)cc1 | -7.24%
28 | COc1ccc(C(C#N)Nc2ccc(C)cc2)cc1 (stereo not shown) | 4.22%
29 | CC1CN(Cc2nc3c(c(=O)n(C)c(=O)n3C)n2Cc2ccccc2)CC(C)O1 (stereo not shown) | -4.14%
30 | CCOc1c(OC)cccc1C1C(C#N)=C(N)Oc2[nH]nc(-c3ccncc3)c21 (stereo not shown) | -0.759%
31 | Cc1c(C(=O)N2CCC(Cc3ccccc3)CC2)cccc1[N+](=O)[O-] | 1.9%
32 | Cc1ccc(C(=O)N/C(=C\c2ccco2)C(=O)NCc2ccccc2F)cc1C | -2.78%
33 | COc1ccc(C(=O)N/C(=C\c2ccc3c(c2)OCO3)C(=O)Nc2ccc3ccccc3c2)cc1 | -6.36%
34 | [O-][n+]1onc2c3nsnc3c(Br)cc21 | -2.9%
35 | NC(=O)C(=S)NCc1ccncc1 | -5.96%
36 | Cc1cccnc1NC(=O)Nc1ccc(Cl)cc1 | -0.925%
37 | N#Cc1cn(CC(=O)Nc2ccccc2F)c2ccccc12 | 4.09%
38 | CCN(CC)CCN1C(=O)C(O)=C(C(=O)c2cccs2)C1c1ccccn1 (stereo not shown) | -0.865%
39 | c1ccc2c(c1)CCN2c1ccncc1 | -0.415%
40 | CCNCC(O)CNC(C)(C)C (stereo not shown) | -2.7%
41 | C=C(C)c1cccc(C(C)(C)NC(=O)NCCc2ccccc2)c1 | 1.26%
42 | C=CCc1cc(/C=C2\Sc3ccccc3C2=O)cc(OCC)c1O | -4.74%
43 | COc1ccc(Nc2nc(N)nc(-c3cc(Cl)ccc3O)n2)cc1 | -1.17%
44 | CN1CCN(Cc2c[nH]c3ccccc23)CC1 | 1.63%
45 | CCC(C)NC(=O)c1cc2c(Cl)ccc3c2n1CCO3 (stereo not shown) | 3.47%
46 | O=C(CN(Cc1ccccc1)S(=O)(=O)c1ccc(Cl)cc1)NCC1CCCO1 (stereo not shown) | -5.26%
47 | O=C(O)C1CCCCC1C(=O)NCc1ccccc1 (stereo not shown) | 2.01%
48 | N#Cc1c(N)nc2c(c1-c1ccccc1)CCCCCC2 | -4.35%
49 | CC1Cc2cc(C(=O)C3=C(O)C(=O)N(CCN4CCOCC4)C3c3cccs3)ccc2O1 (stereo not shown) | 0.291%
50 | Cc1ccc(-c2cc(C(=O)Nc3ncccn3)c3ccccc3n2)cc1C | 0.331% and -5.79%
51 | C/C=C/Cn1c(SCC(C)C)nc2c1c(=O)[nH]c(=O)n2C | 3.05%
52 | COc1cc(/C=C2/SC(N3CCC(C(N)=O)CC3)=NC2=O)ccc1O | -1.44%
